The values below come from paper PMC12040169 (PLOS Biology, 2025).

Molecules are shown by their SMILES. The list shows a part of the results.

For the experiment, the system named is T1, C. trachomatis L2/434/Bu expressing GFP (CTL2-GFP).
T1 construct: L2/434/Bu GFP intracellular growth in HeLa cells
Also noted: species or system HeLa; C. trachomatis total inclusion area by high-content imaging, normalised to DMSO. Conditions: total inclusion area; 28.5 h, 10 µM; inhibitor. The method in brief:
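High-content images of fixed, Hoechst-stained infected cultures supply inclusion area and count (growth) plus nuclei number (viability), complementing bulk GFP/resorufin fluorescence. MIC determination is unchanged from the primary assay.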
As for `COCc1ccc(-c2nccnc2NS(=O)(=O)c2c(C)noc2C)cc1` [CBK049656], the “% of control remaining” value is reported as 78.4072.

Consider `Cc1nccn1C(=O)NC1CCCCC1` [CBK019187], for which the “% of control remaining” value turned out to be 110.064. To `Cc1noc(CN2CCN(CCc3ccc4c(c3)CCO4)CC2)n1` [CBK305208] belongs 54.7863; to `COc1cc(CNn2cnnc2S)ccc1OCC(=O)NC(C)(C)C` [CBK266429], 86.667; to `CN(C)CCCNC(=S)NCc1ccc(Cl)cc1` [CBK266910], 114.027. For the compound `CN1CCC(N2CCN(C(=O)NCCOc3ccccc3)CC2)CC1` [CBK156098], the “% of control remaining” value is on record as 132.19.

For the compound `CS(=O)(=O)c1ccc(-c2ccc(C(=O)N3CCN(C(=O)OCc4ccccc4)CC3)cn2)cc1` [CBK160189], the “% of control remaining” value is 68.5186. Take `Clc1ccc(-c2csc(NCc3ccco3)n2)cc1` [CBK058168]: the “% of control remaining” value is recorded as 97.7704. In the case of `CCCc1[nH]nc(O)c1CCc1ccccc1` [CBK075083], the “% of control remaining” value stood at 114.93.

Turning to `Cc1c(F)cccc1CN1CCN(S(=O)(=O)c2ccc(C(=O)c3ccccc3)cc2)CC1` [CBK062929], the “% of control remaining” value stood at 101.407. On to `CC(C)NC(=O)N[C@H]1CCN2C(=O)N(c3ccc(F)c(Cl)c3)C(=O)[C@@H]2C1` [CBK289540], for which the “% of control remaining” value came to 108.719. Regarding `O=C1NC2(CCC(=O)N(Cc3ccccc3)CC2)Oc2ccccc21` (stereo not drawn) [CBK284438], the “% of control remaining” value turned out to be 72.1727. To `CCOc1ccccc1NC(=O)CC1Sc2ccc(C(F)(F)F)cc2NC1=O` (stereo not drawn) [CBK263659] belongs 84.3878; to `O=C(Nc1cccc(-c2nc3ncccc3o2)c1)c1cccnc1Cl` [CBK058695], 90.0085.

With `Cc1ccc(-c2csc3ncnc(SCc4nc5ccccc5[nH]4)c23)cc1` [CBK267590], the “% of control remaining” value is 105.423.

For the compound `CCCCOC(=O)CCn1c(=S)oc2ccccc21` [CBK019181], the “% of control remaining” value is on record as 68.6906. Take `Cc1cccc(OCC2CCCN(C(=O)Cn3cc(C)cn3)C2)c1` (stereo not drawn) [CBK281531]: the “% of control remaining” value is given as 90.1799. The figure for `Cc1c(C(C)NC(=O)C2C3CCC(O3)C2C(=O)O)cnn1C` (stereo not drawn) [CBK286887] is 77.98; for `COc1ccc(/C=C(\C)C(=O)Nc2cc3ccccc3c(N3CCNCC3)n2)cc1OC` [CBK038937T] it is 69.477; for `O=C(CC(C(=O)O)c1c[nH]c2ccccc12)c1ccc(Cl)cc1` (stereo not drawn) [CBK286620] it is 57.6586. For `CC(=O)Nc1c(C#N)cnn1C` [CBK046332], the “% of control remaining” value was determined as 42.2367. Turning to `O=C(Nc1ccc2oc(-c3cccnc3)nc2c1)c1ccc(Br)o1` [CBK263436], the “% of control remaining” value stood at 72.4226. `O=C(NCC1COc2ccccc2O1)c1cc(-c2ccc(Cl)cc2)cnc1N1CCOCC1` (stereo not drawn) [CBK076286]: the “% of control remaining” value stood at 106.93.

For `COc1cc2c(cc1/C=C1/S/C(=N\c3ccccc3)N(CCCN3CCOCC3)C1=O)OCO2` [CBK265631], the “% of control remaining” value is 119.475. As to `c1ccc(C(Oc2nccnc2-c2cccs2)c2ccccc2)cc1` [CBK107061], the “% of control remaining” value is given as 72.6708.

In the case of `c1ccc2cc(OCc3ccc(-c4nccnc4-c4nnn[nH]4)cc3)ccc2c1` [CBK050818], the “% of control remaining” value came out at 89.8986. To `c1ccc(SCCN2CCOCC2)cc1` [CBK027679] belongs 104.155; to `O=C(C1=C(O)C(=O)N(CCCN2CCOCC2)C1c1cccnc1)c1cc2ccccc2o1` (stereo not drawn) [CBK266147], 100.545; to `CC(=O)c1ccc(N2CCN(Cc3cc(C(C)(C)C)c(O)c(C(C)(C)C)c3)CC2)cc1` [CBK261749], 94.558.

In the case of `CN1CCC(N(CCO)CC2(c3ccc(Cl)cc3)CC2)CC1` [CBK282781], the “% of control remaining” value is 100.76. For the compound `CC(C)Nc1cncc(Sc2ccccc2N)n1` [CBK093726], the “% of control remaining” value is given as 81.115. The figure for `CCn1cc(-c2cncn2CCn2nc(C)c(Cl)c2C)cn1` [CBK281708] is 93.1329. With `N/C(CSc1cccc2c1CCCC2)=N\O` [CBK006787C], the “% of control remaining” value came out at 70.6608. Consider `Clc1ccc(-c2nc(C3CCN(CCc4ccccc4)CC3)n3ccccc23)cc1` [CBK035316], for which the “% of control remaining” value is recorded as 108.771. Take `CN1CCN(c2nc(-c3ccc4c(c3)CCC(=O)N4)cs2)CC1` [CBK304319C]: the “% of control remaining” value turned out to be 52.4198. Consider `COc1ccc2cc(Cn3nc(C(=O)O)c4ccccc4c3=O)c(Cl)nc2c1` [CBK295354], for which the “% of control remaining” value was determined as 118.6. As for `O=C(C1CCCC1)N1CCC(c2cccc(Cc3ccccc3Cl)n2)CC1` [CBK286507], the “% of control remaining” value was 72.5663. As to `CCNC(=O)N1CCN(CCCC(O)c2ccc(F)cc2)CC1` (stereo not drawn) [CBK025001C], the “% of control remaining” value is reported as 49.6091. With `Cc1cc(S(=O)(=O)CC#N)c(C)cc1Cl` [CBK018672], the “% of control remaining” value is listed as 83.8214. To `COc1ccc(C(C)C)cc1S(=O)(=O)NCCN1CCOCC1` [CBK266538] belongs 81.209; to `Clc1ccc(CN2CCC(Oc3cncc(OCCN4CCOCC4)n3)C2)cc1` (stereo not drawn) [CBK084480], 80.6616. With `Cc1ccc(N(CC(=O)NN=C2CCCCCCCCCCC2)S(=O)(=O)c2ccccc2)cc1` [CBK262192], the “% of control remaining” value was determined as 102.517. On to `O=[N+]([O-])c1ccccc1CS(=O)(=O)Nc1ccc(-c2nnn[nH]2)cc1` [CBK155430], for which the “% of control remaining” value worked out at 85.9864. In the case of `O=C1CCC(C(=O)N2CCN(S(=O)(=O)c3ccccc3Cl)CC2)N1` (stereo not drawn) [CBK304561], the “% of control remaining” value turned out to be 56.6779. The figure for `COc1ccc(C(NC(=O)[C@H]2CCCN2C(=O)COc2ccccc2)c2ccccc2C)cn1` (stereo partly drawn) [CBK076682] is 74.4992; for `CCN1C(=O)CC(n2c(C)nc3ccccc32)C1=O` (stereo not drawn) [CBK287847] it is 89.7967; for `O=C(CSc1nnc(C2CC2)[nH]1)Nc1ccc(SC(F)F)cc1` [CBK295302] it is 91.7453.

For `CCc1nc2ccc(C(=O)N(C)C(C)C)cn2c1N(C)CCN1CCOCC1` [CBK146436], the “% of control remaining” value is given as 101.166.

Take `Cn1c(CNc2ccccc2[N+](=O)[O-])c(C#N)c2ccccc21` [CBK115324]: the “% of control remaining” value is recorded as 90.2163. In the case of `Clc1ccc2nc(SCc3csc(Nc4ccccc4)n3)oc2c1` [CBK268269], the “% of control remaining” value is on record as 97.4493. For the compound `Cc1ccc(C(=O)NCCCNc2ccc(Cl)cc2[N+](=O)[O-])cc1` [CBK262334], the “% of control remaining” value is listed as 80.8556. `CCC(=O)N1CCc2cc(C(O)CN3CCCC3)ccc21` (stereo not drawn) [CBK283110]: the “% of control remaining” value is on record as 59.7613.

As for `CC(C)(C)OC(=O)NCc1ccc(-c2cc(N3CCN(C(=O)c4ccco4)CC3)ncn2)cc1` [CBK091107], the “% of control remaining” value amounted to 147.294. Turning to `O=C(NCC1(c2cccc(Br)c2)CCOCC1)C1CC(O)CN1` (stereo not drawn) [CBK304257], the “% of control remaining” value amounted to 20.3146. Consider `O=C(CNC(=O)C1CC=CCC1C(=O)O)Nc1ccc(N2CCCCCC2)cc1` (stereo not drawn) [CBK295603], for which the “% of control remaining” value was determined as 92.9856. With `O=C(NC1CCCCC1)c1s/c(=N/O)nnc1Nc1ccccc1` [CBK022275], the “% of control remaining” value turned out to be 51.5107. Take `COc1cc(OC)nc(CC(=O)O)n1` [CBK103537]: the “% of control remaining” value was 90.1311. To `COc1cc(C)c(C)cc1S(=O)(=O)n1cnc2ccccc21` [CBK287578] belongs 68.1694; to `CN(Cc1ccco1)C(=O)c1cccc(NC(=O)C2CC2)c1` [CBK304857], 44.9126; to `CCc1c(C(=O)NCc2cccnc2-n2cncn2)cnn1-c1ccc(OC)nn1` [CBK298309], 91.3628.

Turning to `CCOC(=O)CNS(=O)(=O)c1ccc(F)cc1` [CBK034442], the “% of control remaining” value worked out at 90.7434. For the compound `COc1ccc(-c2cnc(NCC3CC3)c(C(=O)N(C)CCN(C)C)c2)cc1` [CBK076338], the “% of control remaining” value came out at 103.092. With `CCSc1c(C)cnc2c1c(=O)n(C)c(=O)n2C` [CBK287748], the “% of control remaining” value was 62.9743. The figure for `COc1ccnc(N2CCN(C(=O)C3(C#N)CCCCC3)CC2)n1` [CBK305739] is 88.4406.

Turning to `O=C(O)/C=C/c1ccc(CNS(=O)(=O)c2ccccc2)o1` [CBK286549], the “% of control remaining” value was 104.202. Take `CN(C)c1cccc(-c2nc(-c3ccco3)cnc2N)c1` [CBK063970]: the “% of control remaining” value stood at 156.943. For the compound `Nc1nnc(-c2ccc(Cl)cc2)[nH]1` [CBK025436], the “% of control remaining” value is 121.644. Turning to `Cc1noc(NS(=O)(=O)c2ccc(N/C=C\C(=O)c3cccnc3)cc2)c1C` [CBK264285], the “% of control remaining” value is 26.8055. Take `Cc1ccc(CNC(=O)NCCc2cccs2)cc1` [CBK044960]: the “% of control remaining” value came out at 87.7096. The figure for `O=C(CN1C2CCC1CC(O)(c1ccco1)C2)N1CCCCC1` (stereo not drawn) [CBK284093] is 79.3242; for `COc1cccc(NC(=O)O[C@@H]2CC[C@]3(C)C(CC[C@H]4OC(=O)C[C@H]43)[C@]2(C)CO)c1` (stereo partly drawn) [CBK289576] it is 120.832; for `O=C(OCc1ccc(Cl)cc1)c1ccc2c(c1)C(=O)N(c1cccc([N+](=O)[O-])c1)C2=O` [CBK265188] it is 89.7489.

As for `Cc1cc(F)c(S(=O)(=O)NCCN2CCOCC2)cc1NC(=O)c1ccc(Br)o1` [CBK059091C], the “% of control remaining” value came to 10.405. For the compound `CC(C)N1CCCC2(CCN(C(=O)Cc3c[nH]c(=O)n(C)c3=O)C2)C1=O` (stereo not drawn) [CBK307115], the “% of control remaining” value is given as 71.0172. Regarding `CCOCCCNC(=O)c1cnn2c(C)c(Cc3cccc(C#N)c3)c(C)nc12` [CBK162081], the “% of control remaining” value is on record as 73.7225. With `CC(=O)Nc1cccc(-c2ccc(Nc3cccc(N(C)C)c3)nc2)c1` [CBK036829], the “% of control remaining” value is recorded as 139.809. Take `COc1ccc(OC)c(NC(=O)CSc2nnc(-c3ccc(N)cc3)n2C)c1` [CBK265872]: the “% of control remaining” value is 113.161. Turning to `COc1cccc(C(=O)N2CCN(C(=O)Nc3ccsc3)CC2)c1` [CBK154782], the “% of control remaining” value stood at 74.0782.

Regarding `CCN(CC)C(=O)c1c(NS(=O)(=O)c2ccc(C)cc2)sc2c1CCCC2` [CBK028627], the “% of control remaining” value came to 111.263.

Turning to `COc1cc([N+](=O)[O-])cc(CN2CCN(CCO)CC2)c1O` [CBK261851], the “% of control remaining” value is recorded as 87.351. For the compound `COc1cc(NC(=O)NC(=O)C2CCN(C(C)=O)CC2)cc(OC)c1OC` [CBK034831], the “% of control remaining” value was found to be 84.7735.
